Reference: the supplement of paper PMC6135742
Counter-ions that a name gives are not always drawn. ± gives the standard deviation of the averaged measurements. The full ranking holds about 2,600 compounds; the median of “total cell number (DAPI+ nuclei) relative to DMSO vehicle control” is about -1.4, and the lowest 2% start at about -23. Some of the results follow.

These compounds were tested on jimpy (Plp1 jimpy) mouse iPSC-derived oligodendrocyte progenitor cells (assay: total cell number (DAPI+ nuclei) relative to DMSO vehicle control (SDs above negative control mean); higher = more surviving cells). Details: 10 µM; 3 days.

Compound | total cell number
COc1ccc(CNc2nc(N3CCC[C@H]3CO)ncc2C(=O)NCc2ncccn2)cc1Cl [Avanafil] | 1.77
NC(=O)c1ccccc1 [Benzamide] | -1.64
Cc1c(-c2ccc(-c3ccccc3F)cc2)nc2ccc(F)cc2c1C(=O)O [Brequinar sodium salt hydrate] | -0.144
Nc1nc(N)c2nc(-c3cccc(O)c3)c(-c3cccc(O)c3)nc2n1 | -2.12
Cn1cnc2c(F)c(Nc3ccc(Br)cc3Cl)c(C(=O)NOCCO)cc21 [Selumetinib (AZD6244)] | -9.24
CN(Cc1cc(Br)cc(Br)c1N)C1CCCCC1 [Bromhexine HCl] | 3.21
C[C@H](CS)C(=O)N1CCC[C@H]1C(=O)O [Captopril] | -4.67 ± 3.1
C[C@H](Cc1ccc(O)c(O)c1)[C@@H](C)Cc1ccc(O)c(O)c1 | -8.61
NCCc1ccc(O)c(O)c1 [Dopamine HCl] | -0.925
NCCc1ccc(O)c(O)c1 [Dopamine hydrochloride] | -1.23
COc1ccccc1CN[C@H]1CCCN[C@H]1c1ccccc1 | -1.93
NC(N)=NC(N)=Nc1ccccc1 [1-Phenylbiguanide] | -1.26
Nc1ncnc2c1ncn2[C@@H]1O[C@@H]2COP(=O)(O)O[C@H]2[C@H]1O [Adenosine 3',5'-cyclic monophosphate] | 1.66
CC(C)C(=O)c1c(C(C)C)nn2ccccc12 [Ibudilast] | -1.93
C[N+](C)(C)CC(O)CC(=O)[O-] (racemic) [DL-Carnitine HCl] | 2.24
C[N+](C)(C)C[C@H](O)CC(=O)[O-] [L-carnitine] | -0.368
CC(C)NCC(O)COc1cccc2[nH]ccc12 (stereo not drawn) [Pindolol] | -2.13
COC(=O)C(C)(N)Cc1ccc(O)cc1 (racemic) [alpha-Methyl-DL-tyrosine methyl ester hydrochloride] | -2.52
COC(=O)[C@H]1[C@H]2C[C@H]3c4[nH]c5ccccc5c4CCN3C[C@H]2CC[C@@H]1O [Rauwolscine hydrochloride] | -1.23
Cn1c(N2CCCCS2(=O)=O)nc(C(=O)NCc2ccc(F)cc2)c(O)c1=O | -4.11
CC(CN(C)C)CN1c2ccccc2CCc2ccccc21 (stereo not drawn) [Trimipramine maleate] | -4.49
C=C1C(=O)O[C@H]2[C@H]1CC/C(C)=C/CC[C@@]1(C)O[C@@H]21 [Parthenolide] | -10.2
C=C1C(=O)O[C@H]2[C@H]1CC/C(C)=C/CC[C@@]1(C)O[C@@H]21 [(-)-Parthenolide] | -12.8
O=C(O)COc1ccc(C(=O)c2cccs2)c(Cl)c1Cl [Tienilic acid] | -0.385
COc1ccc(CCC(=O)Nc2nc3ccc(Cl)cc3s2)cc1OC | -1.02
COc1ccc(CCn2nnnc2C2(c3ccc(C)cc3)CC2)cc1 [Mephetyl tetrazole] | -0.201

Compound | total cell number
CCCCOc1ccc(C(=O)CCN2CCCCC2)cc1 [Dyclonine HCl] | -3.72
CC(C)(C)CC(C)(C)c1ccc(OCCOCC[N+](C)(C)Cc2ccccc2)cc1 [Benzethonium Chloride] | -16.4
CN1[C@@H]2CC[C@H]1C[C@@H](OC(=O)C(O)c1ccccc1)C2 (mixture of isomers) [DL-Homatropine hydrobromide] | 0.0407
Cn1nnc2c(C(N)=O)ncn2c1=O [Temozolomide] | 1.12
O=[N+]([O-])c1cn2c(n1)OC[C@@H](OCc1ccc(OC(F)(F)F)cc1)C2 | -1.36
Cc1ccc(C(=O)N(CCCN)[C@@H](c2oc3cc(Cl)ccc3c(=O)c2Cc2ccccc2)C(C)C)cc1 | -15.1
CC(C)(C)NC(=O)[C@H]1CC[C@H]2[C@@H]3CC[C@H]4NC(=O)C=C[C@]4(C)[C@H]3CC[C@]12C [Finasteride] | -0.502
Cc1ccc(C(=O)Cn2c3c(sc2=N)CCCC3)cc1 [Pifithrin-? (PFT?)] | 1.69
C=CC[N+]1([C@H]2C[C@H]3[C@@H]4CC[C@H]5C[C@H](O)[C@@H](N6CCOCC6)C[C@]5(C)[C@H]4CC[C@]3(C)[C@H]2OC(C)=O)CCCC1 [Rocuronium Bromide] | 0.0371
C=C1CC[C@H](O)C/C1=C/C=C1\CCC[C@]2(C)[C@@H]([C@H](C)/C=C/[C@H](C)C(C)C)CC[C@@H]12 [Vitamin D2] | 9.04
Nc1nc(N)c2nc(-c3ccccc3)c(N)nc2n1 [Triamterene] | -2.65 ± 0.62
COc1cc(OC)c(NC(=O)Nc2cc(C)on2)cc1Cl | -0.876
N[C@H]1CONC1=O [L-Cycloserine] | -1.52
CNC(=O)c1ccc(N2C(=S)N(c3ccc(C#N)c(C(F)(F)F)c3)C(=O)C2(C)C)cc1F [Enzalutamide (MDV3100)] | 10.1
O=c1c(O)c(-c2ccc(O)cc2)oc2cc(O)cc(O)c12 [Kaempferol] | -2.62
N#C/C(=C(/N)Sc1ccc(N)cc1)c1ccccc1C(F)(F)F | -4.11
COc1cc2nc(N3CCN(C(=O)C4COc5ccccc5O4)CC3)nc(N)c2cc1OC (stereo not drawn) [Doxazosin mesylate] | -3.83
COc1cc2nc(N3CCN(C(=O)C4COc5ccccc5O4)CC3)nc(N)c2cc1OC (stereo not drawn) [Doxazosin Mesylate] | -5.25
O=C(c1cc(O)c(O)c([N+](=O)[O-])c1)c1ccccc1F | 0.768
O=P(O)(O)C(O)(Cn1ccnc1)P(=O)(O)O [Zoledronic acid monohydrate] | -0.35
O=P(O)(O)C(O)(Cn1ccnc1)P(=O)(O)O [Zoledronic Acid] | -2.71
CC(C)(CO)[C@@H](O)C(=O)NCCC(=O)O [D-Pantothenic acid] | 0.13
O=c1[nH]ccc2c(O)cccc12 [1,5-Isoquinolinediol] | -1.28
COc1cc(NC(=O)c2ccccn2)ccc1Cl | -0.24
Cc1cc(C(C)(C)C)cc(C)c1CC1=NCCN1 [Xylometazoline hydrochloride] | -2.23
Cc1cc(C(C)(C)C)cc(C)c1CC1=NCCN1 [Xylometazoline HCl] | -1.28

Compound | total cell number
CCN(CC)C(=O)C1(c2ccccc2)CC1CN (stereo not drawn) [Milnacipran HCl] | -0.999
CCN(CC)CCOCCOC(=O)C1(c2ccccc2)CCCC1 [Carbetapentane citrate] | 4.89
CC#CCn1c(N2CCC[C@@H](N)C2)nc2c1c(=O)n(Cc1nc(C)c3ccccc3n1)c(=O)n2C [Linagliptin] | 0.0291
Nc1cc2c(ncn2CCOCP(=O)(O)O)c(=O)[nH]1 [PMEG hydrate] | -4.38
O=C(/C=C/c1cccc(S(=O)(=O)Nc2ccccc2)c1)NO [Belinostat (PXD101)] | -11.7
Nc1nc2c(cnn2CCc2ccccc2)c2nc(-c3ccco3)nn12 | -4.23
CC1(C)Cc2c(-c3ccccc3)c(-c3ccc(Cl)cc3)c(CC(=O)O)n2C1 [Licofelone] | -1.86
CC(C)(C)c1cc(NC(=O)Nc2ccc(-c3cn4c(n3)sc3cc(OCCN5CCOCC5)ccc34)cc2)no1 [Quizartinib (AC220)] | -2.51
CC(C)N(CC[C@H](c1ccccc1)c1cc(CO)ccc1O)C(C)C | -1.66
CC[C@H](NC(=O)[C@H](C)NC)C(=O)N1C[C@@H](O)C[C@H]1Cc1c(-c2[nH]c3cc(F)ccc3c2C[C@@H]2C[C@H](O)CN2C(=O)[C@H](CC)NC(=O)[C@H](C)NC)[nH]c2cc(F)ccc12 [Birinapant] | -9.12
CN1CCN2c3ncccc3Cc3ccccc3C2C1 (stereo not drawn) [Mirtazapine] | -1.22
Cn1cc(C(F)(F)F)nc1-c1ccc(OCC(O)CNCCOc2ccc(O)c(C(N)=O)c2)cc1 (stereo not drawn) | 1.49
CC(C)[C@H](N)C(=O)OCCOCn1cnc2c(=O)nc(N)[nH]c21 [Valaciclovir HCl] | -1.33
CC1(C)O[C@@H]2C[C@H]3[C@@H]4C[C@H](F)C5=CC(=O)C=C[C@]5(C)[C@@]4(F)[C@@H](O)C[C@]3(C)[C@]2(C(=O)CO)O1 [Fluocinolone Acetonide] | 7.08
Cc1cc(C)nc(NS(=O)(=O)c2ccc(N)cc2)n1 [Sulfamethazine] | 0.347
CC(C)(Oc1ccc(Cl)cc1)C(=O)OCCOC(=O)c1cccnc1 [Etofibrate] | 0.165
NC(C(=O)O)C(O)C(=O)O (racemic) [DL-threo-beta-hydroxyaspartic acid] | 0.242
CC1=NN(c2ccc(C)c(C)c2)C(=O)/C1=N\Nc1cccc(-c2cccc(C(=O)O)c2)c1O [Eltrombopag] | 0.452
O=C(O)C1=CC(=C(c2ccc(O)c(C(=O)O)c2)c2ccc(O)c(C(=O)O)c2)C=CC1=O [Aurintricarboxylic acid] | -2.05
CCn1c(=O)c2c(nc(/C=C/c3ccc(OC)c(OC)c3)n2C)n(CC)c1=O [Istradefylline] | -2.25
CC(C(O)c1ccc(O)cc1)N1CCC(Cc2ccccc2)CC1 (stereo not drawn) [Ifenprodil Tartrate] | 6.08
CC(C(O)c1ccc(O)cc1)N1CCC(Cc2ccccc2)CC1 (stereo not drawn) [Ifenprodil tartrate] | 2.51
O=c1ccn([C@@H]2O[C@H](COP(=O)(O)OP(=O)(O)O)[C@@H](O)[C@H]2O)c(=O)[nH]1 [Uridine 5'-diphosphate sodium] | -0.296
C[C@@H]1C/C=C/C=C/C=C/C=C/[C@H](O[C@@H]2O[C@H](C)[C@@H](O)[C@H](N)[C@@H]2O)C[C@@H]2O[C@](O)(C[C@@H](O)C[C@H]3O[C@@H]3/C=C/C(=O)O1)C[C@H](O)[C@H]2C(=O)O [Natamycin] | -0.438
COc1ccc(Cl)cc1C(=O)NCCc1ccc(S(=O)(=O)NC(=O)NC2CCCCC2)cc1 [Glybenclamide] | -1.49
COc1ccc(Cl)cc1C(=O)NCCc1ccc(S(=O)(=O)NC(=O)NC2CCCCC2)cc1 [Glyburide] | 1.67
